According to patent US7423058B2, “Inhibitors of hepatitis C virus NS3 protease” (Schering Corporation, priority 2004, dated 2008):

Biological target: Recombinant heterodimeric HCV NS3/NS4A protease (strain 1a) (Hepatitis C virus genotype 1a, UniProt P27958)
Assay: Spectrophotometric assay for HCV protease inhibitory activity (chromogenic ester substrates)
Assay type: biochemical
Settings: Table 3, Esters; read-out: Ki* Range

SMILES	Ki [nM]
C=CCNC(=O)C(=O)C(CCC(F)(F)F)NC(=O)[C@@H]1[C@@H]2[C@H](CN1C(=O)[C@@H](NC(=O)N[C@H](C(=O)OCC1CC1)C(C)(C)C)C(C)(C)C)C2(C)C (stereo partly shown) [compound 4446]	< 75
CC(C)(C)[C@H](NC(=O)NC1(C(=O)OCC2CC2)CCCCC1)C(=O)N1C[C@H]2[C@@H]([C@H]1C(=O)NC(CC1CC1)C(=O)C(N)=O)C2(C)C (stereo partly shown) [compound 4447]	< 75
CC(C)(C)[C@H](NC(=O)NC1(C(=O)OCc2ccoc2)CCCCC1)C(=O)N1C[C@H]2[C@@H]([C@H]1C(=O)NC(CC1CC1)C(=O)C(N)=O)C2(C)C (stereo partly shown) [compound 4448]	< 75
CC(C)(C)[C@@H](NC(=O)N[C@@H](C(=O)N1C[C@H]2[C@@H]([C@H]1C(=O)NC(CC1CC1)C(=O)C(N)=O)C2(Cl)Cl)C(C)(C)C)C(=O)OC1Cc2ccccc2C1 (stereo partly shown) [compound 4449]	< 75
CC(C)(C)C[C@H](NC(=O)N[C@H](C(=O)N1C[C@H]2[C@@H]([C@H]1C(=O)NC(CC1CC1)C(=O)C(N)=O)C2(C)C)C(C)(C)C)C(=O)OCc1ccsc1 (stereo partly shown) [compound 4450]	< 75
CC(C)[C@](C)(NC(=O)N[C@H](C(=O)N1C[C@H]2[C@@H]([C@H]1C(=O)NC(CC1CC1)C(=O)C(N)=O)C2(C)C)C1CCCCC1)C(=O)OCc1ccccc1 (stereo partly shown) [compound 4451]	< 75
COc1ccc(COC(=O)C2(NC(=O)N[C@H](C(=O)N3C[C@H]4[C@@H]([C@H]3C(=O)NC(CC3CC3)C(=O)C(N)=O)C4(C)C)C(C)(C)C)CCCCC2)cc1 (stereo partly shown) [compound 4452]	< 75
CC(C)(C)[C@@H](NC(=O)N[C@H](C(=O)N1C[C@H]2[C@@H]([C@H]1C(=O)NC(CC1CC1)C(=O)C(N)=O)C2(C)C)C1CCCCC1)C(=O)OCc1ccccc1 (stereo partly shown) [compound 4453]	< 75
C=CCNC(=O)C(=O)C(CCC)NC(=O)[C@@H]1[C@@H]2[C@H](CN1C(=O)[C@@H](NC(=O)N[C@H](C(=O)OCc1ccccc1)C(C)C)C(C)(C)C)C2(C)C (stereo partly shown) [compound 4454]	< 75
C=CCNC(=O)C(=O)C(CCC)NC(=O)[C@@H]1[C@@H]2[C@H](CN1C(=O)[C@@H](NC(=O)N[C@H](C(=O)OCc1ccccc1)C1CCCCC1)C(C)(C)C)C2(C)C (stereo partly shown) [compound 4455]	< 75
C=CCNC(=O)C(=O)C(CCCC)NC(=O)[C@@H]1[C@@H]2[C@H](CN1C(=O)[C@@H](NC(=O)N[C@H](C(=O)OC(C)(C)C)C(C)(C)C)C1CCCCC1)C2(C)C (stereo partly shown) [compound 4456]	< 75
C=CCNC(=O)C(=O)C(CCCC)NC(=O)[C@@H]1[C@@H]2[C@H](CN1C(=O)[C@@H](NC(=O)N[C@H](C(=O)OC(C)(C)C)C(C)C)C1(C)CCCCC1)C2(C)C (stereo partly shown) [compound 4458]	< 75
C=CCNC(=O)C(=O)C(CCC)NC(=O)[C@@H]1[C@@H]2[C@H](CN1C(=O)[C@@H](NC(=O)N[C@H](C(=O)OC(C)C1CC1)C(C)C)C(C)(C)C)C2(C)C (stereo partly shown) [compound 4459]	< 75
C=CCNC(=O)C(=O)C(CCC(F)(F)F)NC(=O)[C@@H]1[C@@H]2[C@H](CN1C(=O)[C@@H](NC(=O)N[C@H](C(=O)OCC1CC1)C(C)C)C(C)(C)C)C2(C)C (stereo partly shown) [compound 4460]	< 75
C=CCNC(=O)C(=O)C(CCC(F)(F)F)NC(=O)[C@@H]1[C@@H]2[C@H](CN1C(=O)[C@@H](NC(=O)N[C@H](C(=O)OC(C)C1CC1)C(C)C)C(C)(C)C)C2(C)C (stereo partly shown) [compound 4461]	< 75
C=CCNC(=O)C(=O)C(CCC)NC(=O)[C@@H]1[C@@H]2[C@H](CN1C(=O)[C@@H](NC(=O)N[C@H](C(=O)OCc1ccc(F)cc1)C(C)C)C(C)(C)C)C2(C)C (stereo partly shown) [compound 4462]	< 75
C=CCOC(=O)[C@H](CC(C)(C)C)NC(=O)N[C@H](C(=O)N1C[C@H]2[C@@H]([C@H]1C(=O)NC(CC1CC1)C(=O)C(N)=O)C2(C)C)C(C)(C)C (stereo partly shown) [compound 4463]	< 75
CC(C)[C@@H](NC(=O)N[C@H](C(=O)N1C[C@H]2[C@@H]([C@H]1C(=O)NC(CC1CCC1)C(=O)C(N)=O)C2(C)C)C(C)(C)C)C(=O)OCc1ccccc1 (stereo partly shown) [compound 4464]	< 75
CC(C)(C)[C@H](NC(=O)NC1(C(=O)OCc2ccc(F)cc2)CCCCC1)C(=O)N1C[C@H]2[C@@H]([C@H]1C(=O)NC(CC1CC1)C(=O)C(N)=O)C2(C)C (stereo partly shown) [compound 4465]	< 75
CC(C)(C)[C@H](NC(=O)N[C@H](C(=O)N1C[C@H]2[C@@H]([C@H]1C(=O)NC(CC1CC1)C(=O)C(N)=O)C2(C)C)C(C)(C)C)C(=O)OC1CCCC1 (stereo partly shown) [compound 4466]	< 75
C=CCNC(=O)C(=O)C(CCC)NC(=O)[C@@H]1[C@@H]2[C@H](CN1C(=O)[C@@H](NC(=O)N[C@H](C(=O)OCC1CC1)C(C)(C)C)C(C)(C)C)C2(C)C (stereo partly shown) [compound 4467]	< 75
C=CCNC(=O)C(=O)C(CC1CC1)NC(=O)[C@@H]1[C@@H]2[C@H](CN1C(=O)[C@@H](NC(=O)N[C@H](C(=O)OC(C)(C)C)C(C)C)C(C)(C)C)C2(C)C (stereo partly shown) [compound 4468]	< 75
CC1(C)[C@@H]2[C@@H](C(=O)NC(CC3CC3)C(=O)C(N)=O)N(C(=O)[C@@H](NC(=O)NC3(C(=O)OCc4ccccc4)CCCC3)C3CCCCC3)C[C@@H]21 (stereo partly shown) [compound 4470]	< 75

SMILES	Ki [nM]
CC(C)(C)OC(=O)[C@@H](NC(=O)N[C@H](C(=O)N1C[C@@H]2OC(C)(C)C[C@@H]2[C@H]1C(=O)NC(CC1CC1)C(=O)C(N)=O)C1(C)CCCCC1)C(C)(C)C (stereo partly shown) [compound 4472]	< 75
CC(C)(C)OC(=O)CCNC(=O)C(=O)C(CC1CC1)NC(=O)[C@@H]1[C@@H]2[C@H](CN1C(=O)[C@@H](NC(=O)N[C@H](C(=O)OCC1CC1)C1CC1)C(C)(C)C)C2(C)C (stereo partly shown) [compound 4473]	< 75
C=CCNC(=O)C(=O)C(CCC)NC(=O)[C@@H]1[C@@H]2[C@H](CN1C(=O)[C@@H](NC(=O)N[C@H](C(=O)OCC=C)C(C)C)C(C)(C)C)C2(C)C (stereo partly shown) [compound 4474]	< 75
C[C@@H]1CCCC1OC(=O)[C@@H](NC(=O)N[C@H](C(=O)N1C[C@H]2[C@@H]([C@H]1C(=O)NC(CC1CCC1)C(=O)C(N)=O)C2(C)C)C(C)(C)C)C(C)(C)C (stereo partly shown) [compound 4475]	< 75
CC(C)(C)[C@H](NC(=O)NC1(C(=O)OCc2ccoc2)CCCCC1)C(=O)N1C[C@H]2[C@@H]([C@H]1C(=O)NC(CC1CCC1)C(=O)C(N)=O)C2(C)C (stereo partly shown) [compound 4476]	< 75
CC(C)(C)[C@H](NC(=O)NC1(C(=O)OCc2ccccc2)CC2CCC1C2)C(=O)N1C[C@H]2[C@@H]([C@H]1C(=O)NC(CC1CC1)C(=O)C(N)=O)C2(C)C (stereo partly shown) [compound 4477]	< 75
C=CCNC(=O)C(=O)C(CC1CC1)NC(=O)[C@@H]1[C@@H]2[C@H](CN1C(=O)[C@@H](NC(=O)N[C@H](C(=O)OC(C)(C)C)C(C)(C)C)C(C)(C)C)C2(C)C (stereo partly shown) [compound 4478]	< 75
C=CCNC(=O)C(=O)C(CCC(F)(F)F)NC(=O)[C@@H]1[C@@H]2[C@H](CN1C(=O)[C@@H](NC(=O)N[C@H](C(=O)OC(C)(C)C)C(C)C)C(C)(C)C)C2(C)C (stereo partly shown) [compound 4479]	< 75
C=CCNC(=O)C(=O)C(CCC)NC(=O)[C@@H]1[C@@H]2[C@H](CN1C(=O)[C@@H](NC(=O)N[C@H](C(=O)OC(C)(C)C)C(C)(C)C)C1Cc3ccccc3C1)C2(C)C (stereo partly shown) [compound 4480]	< 75
C=CCNC(=O)C(=O)C(CCC)NC(=O)[C@@H]1[C@@H]2[C@H](CN1C(=O)[C@@H](NC(=O)N[C@H](C(=O)OCC1CC1)C1CCC1)C(C)(C)C)C2(C)C (stereo partly shown) [compound 4481]	< 75
COc1ccc(COC(=O)C2(NC(=O)N[C@H](C(=O)N3C[C@H]4[C@@H]([C@H]3C(=O)NC(CC3CCC3)C(=O)C(N)=O)C4(C)C)C(C)(C)C)CCCCC2)cc1 (stereo partly shown) [compound 4482]	< 75
C=CCNC(=O)C(=O)C(CCCC)NC(=O)[C@@H]1[C@@H]2[C@H](CN1C(=O)[C@@H](NC(=O)N[C@H](C(=O)OC(C)(C)C)C(C)(C)C)C(C)(C)C)C2(C)C (stereo partly shown) [compound 4483]	< 75
CC(C)[C@H](NC(=O)N[C@H](C(=O)N1C[C@H]2[C@@H]([C@H]1C(=O)N[C@@H](CC1CC1)C(=O)C(=O)NCCC(=O)OC(C)(C)C)C2(C)C)C(C)(C)C)C(=O)OCc1ccccc1 [compound 4484]	< 75
CCCCC(NC(=O)[C@@H]1[C@@H]2[C@H](CN1C(=O)[C@@H](NC(=O)N[C@H](C(=O)OC(C)(C)C)C(C)(C)C)C1CCCCC1)C2(C)C)C(=O)C(=O)NCC (stereo partly shown) [compound 4485]	< 75
C=CCNC(=O)C(=O)C(CCC)NC(=O)[C@@H]1[C@@H]2[C@H](CN1C(=O)[C@@H](NC(=O)N[C@H](C(=O)OCc1ccccc1)C1(C(F)(F)F)CC1)C(C)(C)C)C2(C)C (stereo partly shown) [compound 4487]	< 75
CC(C)(C)[C@H](NC(=O)NC1(C(=O)OCc2ccccc2)CCCCC1)C(=O)N1C[C@H]2[C@@H]([C@H]1C(=O)NC(CC1CC1)C(=O)C(N)=O)C2(C)C (stereo partly shown) [compound 4488]	< 75
CNC(=O)C(=O)C(CC1CC1)NC(=O)[C@@H]1[C@@H]2[C@H](CN1C(=O)[C@@H](NC(=O)N[C@H](C(=O)OC(C)(C)C)C(C)(C)C)C(C)(C)C)C2(C)C (stereo partly shown) [compound 4489]	< 75
CC(C)[C@H](NC(=O)N[C@H](C(=O)N1C[C@H]2[C@@H]([C@H]1C(=O)NC(CC1CCC1)C(=O)C(N)=O)C2(C)C)C(C)(C)C)C(=O)OC1Cc2ccccc2C1 (stereo partly shown) [compound 4490]	< 75
CC(C)[C@](C)(NC(=O)N[C@H](C(=O)N1C[C@H]2[C@@H]([C@H]1C(=O)NC(CC1CCC1)C(=O)C(N)=O)C2(C)C)C(C)(C)C)C(=O)OCc1ccccc1 (stereo partly shown) [compound 4491]	< 75
C=CCNC(=O)C(=O)C(CCCC)NC(=O)[C@@H]1[C@@H]2[C@H](CN1C(=O)[C@@H](NC(=O)N[C@H](C(=O)OC(C)(C)C)C(C)(C)C)C1(C)CCCCC1)C2(C)C (stereo partly shown) [compound 4492]	< 75
C=CCNC(=O)C(=O)C(CCC(F)(F)F)NC(=O)[C@@H]1[C@@H]2[C@H](CN1C(=O)[C@@H](NC(=O)N[C@H](C(=O)OC(C1CC1)C1CC1)C(C)C)C(C)(C)C)C2(C)C (stereo partly shown) [compound 4493]	< 75
C=CCNC(=O)C(=O)C(CCC)NC(=O)[C@@H]1[C@@H]2[C@H](CN1C(=O)[C@@H](NC(=O)N[C@H](C(=O)OCc1ccc(OC)cc1)C(C)C)C(C)(C)C)C2(C)C (stereo partly shown) [compound 4494]	< 75
CNC(=O)C(=O)C(CCC(F)(F)F)NC(=O)[C@@H]1[C@@H]2[C@H](CN1C(=O)[C@@H](NC(=O)N[C@H](C(=O)OC1CCOC1)C(C)(C)C)C(C)(C)C)C2(C)C (stereo partly shown) [compound 4495]	< 75
